A collection of fitness landscapes (doi:10.1016/j.celrep.2020.107928)
In all, about 81,000 sequences were measured (“one-hybrid fitness for binding NBS DNA”: median about -0.1, highest 2% from about 0.36 on). Some of the results follow.

B1: Caulobacter ParB omega fusion; a variant is named by its letters at X, in order, B8GW30 (parent)
chain: MESVVVGEPGMSEGRRGLGRGLSALLGEVDAAPAQAPGEQLGGSREAPIEILQRNPDQPRRTFREEDLEDLSNSIREKGVLQPILVRPSPDTAGEYQIVAGERAWRAAQRAGLKTVPIMVRELDDLAVLEIGIIENVQRADLNVLEEALSYKVLMEKFERTQENIAQTIGKSXSHVANXMRLLXLPDEVQSYLVSGELTAXHARAIAAAADPVALAKQIIEGGLSVRETEALARKAPNLSAGKSKGGRPPRVKDTDTQALESDLSSVLGLDVSIDHRGSTGTLTITYATLEQLDDLCNRLTRGI

Variants of: B1
Experiment: one-hybrid fitness for binding NBS DNA (the Noc-binding site; scaled: cognate 1, non-cognate 0); higher = stronger binding
Settings: with NBS DNA site
Outline: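 The reporter was HIS3, with the binding site 19 bp from the promoter, in E. coli USO used for bacterial one-hybrid selection of Caulobacter ParB libraries with four specificity codons randomised. Growth was on M9 lacking histidine, with 0.1 mM IPTG and 5 mM 3-AT, for 48 hours at 37°C. Illumina sequencing covered plasmids before and after selection; three replicate libraries were pooled and variants with under 10 reads dropped. A fitness score is the log change in variant-to-wild-type read ratio, rescaled to the cognate and non-cognate references.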

Variant | one-hybrid fitness for binding NBS DNA
NDDV | ≤ 0.2
VKNC | ≤ 0.2
SRQR | ≤ 0.2
EDLL | ≤ 0.2
RPNR | ≤ 0.2
PDVR | ≤ 0.2
VINR | ≤ 0.2
QRMG | 0.329
DRLE | ≤ 0.2
SLSS | ≤ 0.2
EAKF | ≤ 0.2
QASL | ≤ 0.2
MPTC | ≤ 0.2
RQVT | 0.216
QKSQ | ≤ 0.2
NRDT | ≤ 0.2
PVVV | ≤ 0.2
MCRS | ≤ 0.2
FVMG | ≤ 0.2
RSLW | ≤ 0.2
RFGT | ≤ 0.2
LVGC | ≤ 0.2
VNSK | ≤ 0.2
PSKY | ≤ 0.2

Variant | one-hybrid fitness for binding NBS DNA
NNGR | ≤ 0.2
TTHT | ≤ 0.2
ATPA | ≤ 0.2
KPNG | ≤ 0.2
RSGQ | ≤ 0.2
DDSR | ≤ 0.2
GCYT | ≤ 0.2
SASH | ≤ 0.2
RVWC | ≤ 0.2
YLRY | ≤ 0.2
FSNR | ≤ 0.2
YSVE | ≤ 0.2
VNRG | ≤ 0.2
TFTA | ≤ 0.2
MPKC | ≤ 0.2
WRSY | ≤ 0.2
SRHR | ≤ 0.2
HFDC | ≤ 0.2
GVHA | ≤ 0.2
RQMH | ≤ 0.2
PPNT | ≤ 0.2
RGDA | ≤ 0.2
VFTC | ≤ 0.2
PMGL | ≤ 0.2

Variant | one-hybrid fitness for binding NBS DNA
RGKV | ≤ 0.2
GGRY | ≤ 0.2
RHIQ | ≤ 0.2
NRVV | ≤ 0.2
PDTS | ≤ 0.2
DWIE | ≤ 0.2
CTCH | ≤ 0.2
KNPP | ≤ 0.2
HRAL | ≤ 0.2
KKMC | ≤ 0.2
AAFY | ≤ 0.2
RYFN | ≤ 0.2
SREC | ≤ 0.2
KTGW | ≤ 0.2
SASV | ≤ 0.2
SHIG | ≤ 0.2
QHAH | ≤ 0.2
RCLP | ≤ 0.2
LLWS | ≤ 0.2
PNWR | ≤ 0.2
PWQS | ≤ 0.2
PVHI | ≤ 0.2
SLPE | ≤ 0.2
APPQ | ≤ 0.2

Variant | one-hybrid fitness for binding NBS DNA
ECKN | ≤ 0.2
WRIS | ≤ 0.2
AARI | ≤ 0.2
DLHS | ≤ 0.2
WKDV | ≤ 0.2
TPMT | ≤ 0.2
DVAI | ≤ 0.2
QFYV | ≤ 0.2
EDRL | ≤ 0.2
GHQA | ≤ 0.2
QHNF | ≤ 0.2
AHLC | ≤ 0.2
NVAM | ≤ 0.2
PTDT | ≤ 0.2
YWSL | ≤ 0.2
RALQ | ≤ 0.2
CLEW | ≤ 0.2
FPVA | ≤ 0.2
VEGM | ≤ 0.2
RGCV | ≤ 0.2
VQVC | ≤ 0.2
PFTI | ≤ 0.2
REPV | ≤ 0.2
HWRI | ≤ 0.2

Variant | one-hybrid fitness for binding NBS DNA
EPSF | ≤ 0.2
ATAD | ≤ 0.2
QASR | 0.482
VEHG | ≤ 0.2
IKVY | ≤ 0.2
EADS | ≤ 0.2
LYWS | ≤ 0.2
PLPP | ≤ 0.2
HLPS | ≤ 0.2
VSHP | ≤ 0.2
QIMS | ≤ 0.2
VLRG | ≤ 0.2
LAPT | ≤ 0.2
WGFG | ≤ 0.2
PVIS | ≤ 0.2
RQRT | 0.615
KHRR | 0.367
TPQL | ≤ 0.2
IRNC | ≤ 0.2
PVNS | ≤ 0.2
EKKR | 0.216
CRPM | ≤ 0.2
AITC | ≤ 0.2
NSHS | ≤ 0.2

Variant | one-hybrid fitness for binding NBS DNA
NGLL | ≤ 0.2
SMEV | ≤ 0.2
ETHT | ≤ 0.2
QLGH | ≤ 0.2
CVKS | ≤ 0.2
NKYF | ≤ 0.2
NLRV | ≤ 0.2
MTRG | ≤ 0.2
PWTY | ≤ 0.2
CCHS | ≤ 0.2
RMFV | ≤ 0.2
NWHG | ≤ 0.2
WTDT | ≤ 0.2
GYPA | ≤ 0.2
DLGV | ≤ 0.2
NKVQ | ≤ 0.2
CRDV | ≤ 0.2
EPTR | ≤ 0.2
CPAA | ≤ 0.2
CSHC | ≤ 0.2
GSFS | ≤ 0.2
DIRT | ≤ 0.2
KRGM | ≤ 0.2
MVIP | ≤ 0.2

Variant | one-hybrid fitness for binding NBS DNA
STAL | ≤ 0.2
TSTK | ≤ 0.2
QHHL | ≤ 0.2
WESR | ≤ 0.2
DKAY | ≤ 0.2
CLAA | ≤ 0.2
PWPD | ≤ 0.2
LYRV | ≤ 0.2
KGTS | ≤ 0.2
SLRF | ≤ 0.2
NRCG | ≤ 0.2
RHAW | ≤ 0.2
TLDI | ≤ 0.2
NLDG | ≤ 0.2
IWRR | ≤ 0.2
QPKS | ≤ 0.2
GHNV | ≤ 0.2
KRCA | 0.291
VRER | ≤ 0.2
QIDM | ≤ 0.2
SWLS | ≤ 0.2
APYC | ≤ 0.2
RMLT | 0.347
ANHY | ≤ 0.2

Variant | one-hybrid fitness for binding NBS DNA
QTCN | ≤ 0.2
PMVW | ≤ 0.2
RTMF | ≤ 0.2
ATAF | ≤ 0.2
SMHM | ≤ 0.2
QAIL | ≤ 0.2
SMSL | ≤ 0.2
SWTY | ≤ 0.2
RMIM | ≤ 0.2
YTIG | ≤ 0.2
TTKK | ≤ 0.2
LFFS | ≤ 0.2
GMVV | ≤ 0.2
LRLE | ≤ 0.2
SLAW | ≤ 0.2
DMPN | ≤ 0.2
PQML | ≤ 0.2
AIGL | ≤ 0.2
CANC | ≤ 0.2
RAYY | ≤ 0.2
IWIR | ≤ 0.2
PYQL | ≤ 0.2
RMDM | ≤ 0.2
LDMR | ≤ 0.2

Variant | one-hybrid fitness for binding NBS DNA
IEMC | ≤ 0.2
ECEG | ≤ 0.2
HETG | ≤ 0.2
WANL | ≤ 0.2
WAFS | ≤ 0.2
IVAS | ≤ 0.2
NAKV | ≤ 0.2
SNQW | ≤ 0.2
LHPY | ≤ 0.2
VSEP | ≤ 0.2
CDCM | ≤ 0.2
RFEK | ≤ 0.2
TDCS | ≤ 0.2
DRCT | ≤ 0.2
ARHV | ≤ 0.2
WDPE | ≤ 0.2
TPDK | ≤ 0.2
DVRY | ≤ 0.2
MLRT | ≤ 0.2
ARPD | ≤ 0.2
RVMC | ≤ 0.2
VSKR | 0.201
APTT | ≤ 0.2
QLKS | 0.573

Variant | one-hybrid fitness for binding NBS DNA
RLRP | ≤ 0.2
MGNY | ≤ 0.2
QTDD | ≤ 0.2
SNRV | ≤ 0.2
RDCM | ≤ 0.2
DGVY | ≤ 0.2
VTCG | ≤ 0.2
PHHI | ≤ 0.2
NLLV | ≤ 0.2
KVEH | ≤ 0.2
KCVR | ≤ 0.2
MYVR | ≤ 0.2
QDCF | ≤ 0.2
MYKY | ≤ 0.2
CCLG | ≤ 0.2
RIEG | ≤ 0.2
CHAD | ≤ 0.2
VSYT | ≤ 0.2
FHSR | ≤ 0.2
RQEG | ≤ 0.2
VLLV | ≤ 0.2
FFAT | ≤ 0.2
QKTD | ≤ 0.2
SSRM | ≤ 0.2

Variant | one-hybrid fitness for binding NBS DNA
RFSD | ≤ 0.2
TDGT | ≤ 0.2
VGNR | ≤ 0.2
YMNM | ≤ 0.2
AHPC | ≤ 0.2
RDLF | ≤ 0.2
VVHV | ≤ 0.2
FWSR | ≤ 0.2
NPSD | ≤ 0.2
TSMW | ≤ 0.2
MHFR | ≤ 0.2
TCYC | ≤ 0.2
VIHR | ≤ 0.2
EWHS | ≤ 0.2
GDHK | ≤ 0.2
PNVG | ≤ 0.2
DAIG | ≤ 0.2
PWFC | ≤ 0.2
GQTR | ≤ 0.2
RGMN | ≤ 0.2
GNYI | ≤ 0.2
GTHD | ≤ 0.2
HRMC | ≤ 0.2
TYDR | ≤ 0.2

Variant | one-hybrid fitness for binding NBS DNA
AVFT | ≤ 0.2
SWFV | ≤ 0.2
IDVW | ≤ 0.2
SGFS | ≤ 0.2
ELTR | ≤ 0.2
KQGS | ≤ 0.2
ACET | ≤ 0.2
QPLA | ≤ 0.2
YNKD | ≤ 0.2
LQMT | ≤ 0.2
TNRQ | ≤ 0.2
SDAL | ≤ 0.2
TNTN | ≤ 0.2
CPTH | ≤ 0.2
RINN | ≤ 0.2
AQQN | ≤ 0.2
PIIW | ≤ 0.2
WVWR | ≤ 0.2
RMKW | ≤ 0.2
LSPH | ≤ 0.2
KNRC | ≤ 0.2
VTQP | ≤ 0.2
PIHV | ≤ 0.2
FLET | ≤ 0.2

Variant | one-hybrid fitness for binding NBS DNA
GADD | ≤ 0.2
NDKM | ≤ 0.2
CNTG | ≤ 0.2
AWIS | ≤ 0.2
DLWK | ≤ 0.2
QISS | 0.228
HPHY | ≤ 0.2
AEYT | ≤ 0.2
ASMI | ≤ 0.2
DSYM | ≤ 0.2
QKSM | ≤ 0.2
ELSF | ≤ 0.2
GDNG | ≤ 0.2
FVRF | ≤ 0.2
SFCR | ≤ 0.2
ALRG | ≤ 0.2
WSYT | ≤ 0.2
RNSN | ≤ 0.2
